Experimental findings from patent US20180222996A1 (SCOTT AND WHITE HEALTHCARE SWH, published 2018) are described below.

In assay [1] the target is T1, CD3 on Jurkat T cells (UniProt P07766; P09693; P04234).
T1 construct: whole, on cells; The assay used Jurkat T cells; also called T-cell surface CD3
Briefly: flow cytometry titration on Jurkat T cells, compared with UCHT1. The protocol:
(§1) FIG. 3A-3C. T-cell surface binding of CD123xCD3 BIf. Binding of 1 μg/ml of (A) CD123xCD3 BIf; and (B) UCHT1 to Jurkat T cells was analyzed by flow cytometry with PE-conjugated secondary antibodies. The dotted histogram represented the reaction with human IgG1 control. The y-axis represented cell counts. (C) Serials titrations of UCHT1 (square) and CD123xCD3 BIf (triangle) were used in flow cytometric analysis with Jurkat T cells. The mean X-axis values were plotted versus protein concentrations for Kd analysis.
(§2) For antigen on monolayer cultured cells (CHO-CD123), cell-based enzyme-linked immunosorbent assay (CELISA, see above) was used to evaluate binding affinities (Kuo et al, 2009). […] For suspension cultured cells, flow cytometry was used to measure binding affinities.
(§3) Jurkat T cells were used to test CD123xCD3 BIf's abilities to recruit T cells. […] This reduced T cell binding affinity would help to prevent non-specific T-cell activation.
In general terms: In flow cytometry, cells or beads pass a laser one at a time.

Assay [2] addresses T1, CD3 on Jurkat T cells. Briefly: flow cytometry titration on Jurkat T cells; Kd = concentration at 50% of maximal mean X-axis value. The method, then: as §1, §2, §3
The target in assay [3] is T2, Human CD123 on stably transfected CHO-K1 cells (CHO-CD123) (human, UniProt P26951 19-378).
T2 construct: whole, on cells; also called IL-3 receptor alpha subunit; cell surface CD123
T2 sequence (looked up): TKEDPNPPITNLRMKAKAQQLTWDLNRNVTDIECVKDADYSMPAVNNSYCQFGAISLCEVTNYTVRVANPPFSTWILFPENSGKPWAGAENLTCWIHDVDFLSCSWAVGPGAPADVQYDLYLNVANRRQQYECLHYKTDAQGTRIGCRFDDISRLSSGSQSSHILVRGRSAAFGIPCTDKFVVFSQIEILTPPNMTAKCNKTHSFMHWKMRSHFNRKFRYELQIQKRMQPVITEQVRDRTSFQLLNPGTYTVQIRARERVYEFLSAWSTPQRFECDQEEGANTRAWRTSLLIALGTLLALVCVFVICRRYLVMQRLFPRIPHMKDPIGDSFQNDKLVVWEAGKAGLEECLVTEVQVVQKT
As to the kind of experiment: target cell binding, compared with 12F1. The method, then:
One day prior to the experiment, 5×10⁴ CHO-K1 or CHO-CD123 cells were seeded in each well of a flat-bottom 96-well plate. The next day, cells were washed with PBS and fixed with 3% formaldehyde in PBS at room temperature for 10 minutes. Fixed cells were washed thrice with PBS containing 0.5% Tween-20 (PBST) and incubated in Blocking Solution (PBS with 10% goat serum) for 30 minutes. A titration of 12F1, 12F1scFv-Fc or CD123xCD3 BIf was then added at room temperature for 60 minutes, followed by washing with PBST and then 45 minutes incubation with HRP-conjugated anti-mouse or anti-human secondary antibodies (Jackson Lab) at room temperature. The HRP activity was detected by HRP substrate (R&D) for 10 minutes and stopped by 0.5N H₂SO₄. The plates were read by a plate reader set at 450 nm.
as §2
The abilities of 12F1scFv-Fc and CD123xCD3 BIf to bind cell surface CD123 were examined by flow cytometry using CHO-K1 and CHO-CD123. 12F1 murine monoclonal antibody was used as a positive control. […] The binding affinities were tested in cell-based ELISA with CHO-CD123 cells.

T1 sequence (P07766 23-207, chain 1 of 3): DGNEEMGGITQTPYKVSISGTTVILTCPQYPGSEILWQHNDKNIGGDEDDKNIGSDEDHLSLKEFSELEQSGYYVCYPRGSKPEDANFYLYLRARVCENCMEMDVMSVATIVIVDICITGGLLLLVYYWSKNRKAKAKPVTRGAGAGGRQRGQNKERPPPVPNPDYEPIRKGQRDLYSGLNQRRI
T1 sequence (P09693 23-182, chain 2 of 3, further chain): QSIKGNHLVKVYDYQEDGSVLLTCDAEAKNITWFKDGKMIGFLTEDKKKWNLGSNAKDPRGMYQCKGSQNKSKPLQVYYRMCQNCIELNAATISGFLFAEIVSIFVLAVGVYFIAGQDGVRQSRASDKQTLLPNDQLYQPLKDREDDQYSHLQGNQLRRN
T1 sequence (P04234 22-171, chain 3 of 3, further chain): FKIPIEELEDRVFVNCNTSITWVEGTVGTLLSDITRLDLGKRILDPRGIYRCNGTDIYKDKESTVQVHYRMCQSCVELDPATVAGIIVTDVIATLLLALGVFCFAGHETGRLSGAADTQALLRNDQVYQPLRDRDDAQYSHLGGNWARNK

B1: CD123xCD3 BIf (bispecific scFv immunofusion) (bispecific antibody)
chain: DIMMSQSPSSLAVSVGEKFTMTCKSSQSLFFGSTQKNYLAWYQQKPGQSPKLLIYWASTRESGVPDRFTGSGSGTDFTLAISSVMPEDLAVYYCQQYYNYPWTFGGGTKLEIKGSTSGSGKPGSGEGSTKGVQLQESGPGLVKPSQSLSLTCSVTDYSITSGYYWNWIRQFPGNKLEWMGYISYDGSNNYNPSLKNRISITRDTSKNQFFLKLSSVTTEDTATYYCSRGEGFYFDSWGQGTTLTVSSARS[letters of human IgG1 Fc left out]PWDIQMTQTTSSLSASLGDRVTISCRASQDIRNYLNWYQQKPDGTVKLLIYYTSRLHSGVPSKFSGSGSGTDYSLTISNLEQEDIATYFCQQGNTLPWTFAGGTKLEIKGSTSGSGKPGSGEGSTKGEVQLQQSGPELVKPGASMKISCKASGYSFTGYTMNWVKQSHGKNLEWMGLINPYKGVSTYNQKFKDKATFTVDKSSSTAYMELLSLTSEDSAVYYCARSGYYGDSDWYFDVWGAGTTVTVSS
notes: also called CD123xCD3 bispecific immunoglobulin
Usually Kd stands for a measure of binding affinity in units of concentration. Read a low Kd as tighter binding. As to B1, the “Kd relative to UCHT1” value in the assay with CD3 on Jurkat T cells [1] is 2 orders (of magnitude) higher. In the assay with CD3 on Jurkat T cells [2], this molecule came in with a Kd of 10 nM. Also, in assay [3], the “fold lower target cell binding affinity than parental antibody 12F1” value was roughly 5 times lower.
